In PubChem BioAssay AID1347073 (National Center for Advancing Translational Sciences (NCATS), 2019):
In all, about 45,000 compounds went through this assay and about 200 (0.44%) were called active. Inconclusive results (about 7%) are left out. Calls come from the whole dose curve; as a rule, active = well fitted activation curve with a large enough effect; inconclusive = small, poorly fitted or top-dose-only effect; inactive = no such curve, though single readings can be large or run the other way. Some of the results follow.

Experiment: qHTS of TDP-43 Inhibitors: NCGC Sytravon Library Screen; note: nearly all actives have a fitted effect of over 55% in size; for growth rescue (activation): 0% is about no effect
Details: yeast TDP-43 toxicity rescue, BacTiter-Glo growth, 24 h; series mostly up to 46.1 µM; growth rescue (activation): at the top concentration
Summary of the method: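 TDP-43-expressing yeast, pregrown in raffinose, seeded at OD600 0.02 in galactose medium with compound for 24 hr at 30 deg C. Growth read by BacTiter-Glo luminescence, so rescue of toxicity appears as activation.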
Potency is the fitted concentration of half-maximal effect.

| SMILES | growth rescue (activation) | Potency |
| --- | --- | --- |
| O=C(c1cncc(Br)c1)N1CCN(c2ccc([N+](=O)[O-])cc2)CC1 | inactive: 3.44% | – |
| Cc1ccc(OCC(=O)N(C)Cc2ccccc2)c([N+](=O)[O-])n1 | inactive: 9.8% | – |
| CCOC(=O)C(C(=O)Nc1nccs1)C1CCCCC1 (centres undefined) | inactive: -4.86% | – |
| CCOC(=O)C1CCCN(C(=O)c2ccc3c(c2)N(Cc2ccccc2)C(=O)c2ccccc2S3(=O)=O)C1 (centres undefined) | inactive: 25.5% | – |
| COc1ccc(C2CC(c3cccs3)=NN2C(=O)c2ccc(Br)o2)cc1 (centres undefined) | inactive: 24.1% | – |
| O=C(CSc1ccccn1)Nc1nc2c(ccc3ccccc32)s1 | inactive: 23.5% | – |
| NC(=S)N/N=C/c1ccc(C23CC4CC(CC(C4)C2)C3)cc1 | – | active: 7.94 µM |
| O=C(Cn1cnc2c(cnn2-c2ccccc2)c1=O)Nc1cc(S(=O)(=O)N2CCOCC2)ccc1Cl | inactive: -13.6% | – |
| Cc1ccccc1NC(=O)c1ccc(CN2CCC(Cc3ccccc3)CC2)cc1 | inactive: -12.2% | – |
| CC(C)Cn1c(N)c(C(=O)COC(=O)C2CC(=O)N(Cc3ccccc3Cl)C2)c(=O)n(C)c1=O (centres undefined) | inactive: 7.06% | – |
| Cc1ccccc1NC(=O)NC1(C(=O)N2CCC(O)CC2)CCCCC1 | inactive: 3.83% | – |
| COc1ccc(Nc2nc(N(C)c3ccccc3)nc(N)c2[N+](=O)[O-])cc1 | inactive: 14.6% | – |
| Cc1cc(=O)[nH]c(CN2CCOCC2)n1 | inactive: -25.9% | – |
| CSc1ccc(S(=O)(=O)N2CCC(C(=O)NCCN3CCOCC3)CC2)cc1 | inactive: 13.8% | – |
| CC(=O)Nc1sc(/C(C#N)=C\c2cccc(Cl)c2)nc1-c1ccc(C)cc1 | inactive: -7.82% | – |
| C/C(=N\NC(=O)c1cccc([N+](=O)[O-])c1)c1cccs1 | inactive: 26.6% | – |
| Cc1ccc(C(=O)n2c(N)nc3ccccc32)cc1 | inactive: -4.96% | – |
| Cc1nn(C)cc1CNC(=O)c1cccc(F)c1 | inactive: -0.408% | – |
| COc1nc(Nc2cccc([N+](=O)[O-])c2)nc(OC)n1 | inactive: 0.336% | – |
| O=C(Nc1nccs1)c1cc(-c2ccco2)nc2ccccc12 | inactive: 16.1% | – |
| CCOc1ccccc1NCc1cc(=O)oc2cc(C)ccc12 | inactive: -11.2% | – |
| COc1ccc2[nH]c3c(=O)n(Cc4ccc(C(=O)N5CCCCCC5)cc4)c(=S)[nH]c3c2c1 | inactive: -0.164% | – |
| Cc1ccc(-n2c(=O)[nH]c3c(C(N)=O)nc(C(C)C)nc32)cc1 | inactive: -8.87% | – |
| O=C(NC(=S)N1CCN(Cc2ccc3c(c2)OCO3)CC1)c1ccc(Cl)cc1 | inactive: 7.46% | – |
| O=C(CNc1ccc(F)cc1F)NC(=O)NCc1ccco1 | inactive: -2.61% | – |
| COC(=O)c1ccc(NC(=O)Cn2cnc3c2c(=O)n(C)c(=O)n3C)cc1 | inactive: 4.35% | – |

| SMILES | growth rescue (activation) | Potency |
| --- | --- | --- |
| CN(c1ccc(OCC(=O)OCC(=O)NC2CCCC2)cc1)S(=O)(=O)c1ccc2ccccc2c1 | inactive: -12.2% | – |
| NS(=O)(=O)c1ccc(NC(=O)COC(=O)Cc2c[nH]c3ccccc23)cc1 | inactive: 5.51% | – |
| CC1(C)Cc2c(cnn2-c2cccc(F)c2)C(NC(=O)c2ccc[n+]([O-])c2)C1 (centres undefined) | inactive: 5.74% | – |
| COc1ccccc1NS(=O)(=O)c1cc(NC(=O)c2ccc3c(c2)OCCO3)ccc1C | inactive: -9.07% | – |
| CCOc1cc(CNCCO)cc(Br)c1OCc1ccccc1 | inactive: -14.1% | – |
| CC1CCN(C(=O)COC(=O)CNC(=O)c2ccccc2F)CC1 | inactive: -6.16% | – |
| Cc1ccc(Cl)cc1N1CCN(S(=O)(=O)c2c(C)nc3scc(C)n3c2=O)CC1 | inactive: 17% | – |
| Cc1cccc(OCCCC(=O)Nc2nccs2)c1C | inactive: 22.6% | – |
| Cc1ccc(C)c(OCCC(=O)Nc2cc(S(=O)(=O)N3CCCCC3)ccc2C)c1 | inactive: 8.81% | – |
| CN1CCCCC1(C)C(=O)NCc1ccc(F)cc1 (centres undefined) | inactive: 2.42% | – |
| CC1(C)OC(=O)N(c2ccccn2)C1(C)O (centres undefined) | inactive: -19.1% | – |
| COc1ccc(CCNS(=O)(=O)c2ccc3c(c2)NC(=O)CO3)cc1OC | inactive: -25.2% | – |
| CC(C)(C)c1ccc(C(=O)NCCCNC(=O)c2ccccn2)cc1 | inactive: -6.16% | – |
| O=C(CN1CCN(S(=O)(=O)c2ccc(Cl)cc2)CC1)N1CCCC1 | inactive: 8.19% | – |
| CC(C)N(C(=O)Cn1cc(S(=O)(=O)Cc2ccc(Cl)cc2)c2ccccc21)C(C)C | inactive: 7.74% | – |
| OCCC1CN(CC(c2ccccc2)c2ccccc2)CCN1C1CCCC1 (centres undefined) | inactive: -3.48% | – |
| CCN1C(=O)/C(=C\c2nc3ccccc3c(=O)n2-c2ccccc2)c2ccccc21 | inactive: 17.7% | – |
| CSc1ncc(C(=O)Nc2ccccc2C)c(C)n1 | inactive: 10.9% | – |
| CC1CN(S(=O)(=O)c2ccc(F)cc2)C(C)N1C(=O)N1CCOCC1 (centres undefined) | inactive: 3.57% | – |
| COc1ccccc1N(CC(=O)NC1CCCC1)C(=O)CNC(=O)c1cccs1 | inactive: -12.7% | – |
| COc1ccc(OC)c(NC(=O)C(C)N2c3cccc4cccc(c34)S2(=O)=O)c1 (centres undefined) | inactive: -7.99% | – |
| N#Cc1c(NC(=O)CSc2nnc(-c3ccncc3)n2CC2CCCO2)sc2c1CCCC2 (centres undefined) | inactive: 13.9% | – |
| CCn1cc(-c2cc(C(=O)O)on2)c(C)n1 | inactive: 7.85% | – |
| COc1cccc(CSc2nc3ccncc3[nH]2)c1 | inactive: -24.9% | – |
| O=C(COC(=O)C1(c2ccc(F)cc2)CCCC1)N1CCN(C(=O)c2ccco2)CC1 | inactive: 12.7% | – |
| Cc1cc(C(=O)CN2C(=O)NC3(CCCc4ccccc43)C2=O)c(C)n1C (centres undefined) | inactive: -9.62% | – |

| SMILES | growth rescue (activation) | Potency |
| --- | --- | --- |
| Cc1ccc(CNC(=O)COC(=O)c2ccc(S(=O)(=O)N3CCOCC3)cc2)cc1 | inactive: -13.6% | – |
| COc1ccc(NC(=O)C2CCCN(S(=O)(=O)c3cccc4nonc34)C2)cc1OC (centres undefined) | inactive: -0.907% | – |
| CC(=O)C1=C(O)C(=O)N(c2ccc(Br)cn2)C1c1ccccc1[N+](=O)[O-] (centres undefined) | inactive: 2.75% | – |
| Cc1ccc(S(=O)(=O)NCC(=O)OCC(=O)c2c(N)n(C)c(=O)n(C)c2=O)cc1 | inactive: 14% | – |
| CC(C)N(Cc1cc2ccccc2[nH]c1=O)C(=O)c1cccc([N+](=O)[O-])c1 | inactive: 27.6% | – |
| CC(C)COc1ccc(C(=O)N2C(=O)c3ccc(N)cc3C2=O)cc1 | inactive: 13.3% | – |
| O=C(Cc1ccc(Cl)cc1)NCCCNC(=O)c1cccnc1 | inactive: -11.3% | – |
| Cc1sc(NC(=O)CSc2nnnn2C(C)C)c(C#N)c1C | inactive: 15.2% | – |
| Cc1cccc(OCC(=O)NCC(=O)N/N=C/c2cc(Br)cc(Br)c2O)c1 | inactive: 3.81% | – |
| CCn1c(=O)c(=O)[nH]c2cc(C(=O)NCc3ccc(F)cc3)ccc21 | inactive: -3.33% | – |
| CCN1/C(=C2\C(=O)N(C)C(=S)N2c2ccccc2)C=Cc2ccccc21 | inactive: -28.6% | – |
| CCN1C(=O)/C(=C2\SC(=S)N(NC(=O)c3ccccc3O)C2=O)c2ccccc21 | inactive: -4.6% | – |
| Cc1ccc(NC(=O)CS(=O)c2ccccc2N)c(C)c1 (centres undefined) | inactive: 22.3% | – |
| Cc1cc(C2=NNC(=Nc3ccc(S(=O)(=O)N4CCOCC4)cc3)SC2)c(C)n1C | inactive: -1.48% | – |
| CC1(C(=O)O)CCC(C(=O)Nc2cccc(F)c2)C1(C)C (centres undefined) | inactive: -10.7% | – |
| O=S1(=O)N=C(N(CCO)/N=C/C=C/c2ccccc2)c2ccccc21 | inactive: -26.1% | – |
| CC(=O)c1ccc(NC(=O)C(C)Nc2ccc(Cl)cc2)cc1 (centres undefined) | inactive: 27.6% | – |
| Cc1ccnc(NC(=S)N2CCN(c3cccc(C(F)(F)F)c3)CC2)c1 | inactive: 24.3% | – |
| COc1ccccc1N1CCN(/N=C/c2ccc(O)c(O)c2)CC1 | inactive: 10.7% | – |
| COc1ccc2nc(NC(=O)c3ccc(NS(=O)(=O)c4cccs4)cc3)sc2c1 | inactive: 4.39% | – |
| Cc1ccc(/C=C2/NC(=O)N(Cc3ccccc3F)C2=O)o1 | inactive: -2.17% | – |
| Cc1ccc(S(=O)(=O)N2CCOCC2)cc1C(=O)OC1CCCCC1=O (centres undefined) | inactive: 10.6% | – |
| COC(=O)C(C)(C)ONC(=O)Nc1ccccc1Cl | inactive: 7.17% | – |
| O=C(Cc1c(C(=O)O)[nH]c2ccccc12)NC1CCCC1 | inactive: -5.7% | – |
| COc1ccc(-c2cc(C3CC3)nc(N)c2C#N)cc1 | inactive: 4.03% | – |
| O=C(COC(=O)c1ccc(Br)cc1)Nc1ccccc1Br | inactive: 6.05% | – |

| SMILES | growth rescue (activation) | Potency |
| --- | --- | --- |
| Cc1csc(CN(C)C(=O)CC2C(=O)NCCN2CC(C)(C)C)n1 (centres undefined) | inactive: 2.51% | – |
| Cc1nc(C(=O)N2CCC(C)(C(=O)NS(=O)(=O)C3CC3)C2)c(C)o1 (centres undefined) | inactive: 9.93% | – |
| COC(=O)c1ccc(CNC(=O)c2coc3ccccc3c2=O)cc1 | inactive: -6.42% | – |
| COc1ccc(-c2cnc3c(NC(C)=O)cc(-c4cccc(C(=O)NCCO)c4)cn23)cc1OC | inactive: -3.22% | – |
| CC(NC(=O)c1cccc(S(=O)(=O)N(C)C)c1)C1CC2CCC1C2 (centres undefined) | inactive: -8.18% | – |
| COC(=O)CCN(C(=O)c1ccc(N2CCCCC2)c([N+](=O)[O-])c1)c1ccccn1 | inactive: 35% | – |
| COc1ccc(-c2cc(C(=O)Nc3cccnc3)no2)cc1OC | inactive: 14.9% | – |
| Clc1ccc2oc3c(Cl)ncnc3c2c1 | inactive: 19.1% | – |
| COc1ccc(C(C(=O)NC2CCCC2)N(CCCO)C(=O)c2snc(C(N)=O)c2N)cc1 (centres undefined) | inactive: -28.6% | – |
| O=c1[nH]c(CSc2nnnn2-c2ccc(Cl)cc2)nc2ccccc12 | inactive: 7.85% | – |
| CCOC(=O)C1CCN(C(=O)COC(=O)c2ccc3c(c2)C(=O)N(c2ccc(OCC)cc2)C3=O)CC1 | inactive: 0.536% | – |
| CC(CC(=O)Nc1ccc2c(c1)c(=O)n(C)n2Cc1ccc(F)cc1)c1ccccc1 (centres undefined) | inactive: 4.98% | – |
| O=C(CN1CCCCC1)NNC(=O)c1cccc(Br)c1 | inactive: 5.45% | – |
| Cc1cccc(NC(=O)C2CCCN(C(=O)Nc3ccc(F)cc3)C2)c1C (centres undefined) | inactive: 7.53% | – |
| O=C(COC(=O)c1cc(=O)[nH]c2ccccc12)Nc1ccc(F)cc1F | inactive: -13.4% | – |
| O=C(O)c1ccc2c(c1)C(=O)N(CCc1c[nH]c3ccccc13)C2=O | inactive: 0.713% | – |
| CCN(CC)C(=O)CSc1nc2c(c(-c3cccnc3)c1C#N)CCCC2 | inactive: 3.03% | – |
| COc1cccc(CNC(=O)COC(=O)c2ccc(Cl)s2)c1 | inactive: -7.07% | – |
| CC(C)Oc1cccc(C(=O)NC(=S)NCc2cccnc2)c1 | inactive: 20.2% | – |
| CC1(C(=O)Nc2ccc3c(c2)OCO3)CCN1C(=O)CC1CC1 (centres undefined) | inactive: 0.0525% | – |
| CCc1cccc(NC(=O)c2cc(-c3ccccc3)n[nH]2)c1 | inactive: 23.3% | – |
| COc1ccc(NC(=O)CNC(=O)c2ccco2)cc1S(=O)(=O)Nc1cc(C)ccc1Br | inactive: 12.4% | – |
| C=C(C)CN1CCN(S(=O)(=O)c2ccc(C)c(N(C)S(=O)(=O)c3ccc(C)cc3)c2C)CC1 | inactive: 1.83% | – |
| O=C(Nn1cnnc1)c1ccc(Cl)c([N+](=O)[O-])c1 | inactive: -3.17% | – |
| CC(=O)c1cccc(NC(=O)C(C)OC(=O)CCc2nc3ccccc3c(=O)[nH]2)c1 (centres undefined) | inactive: 0.294% | – |
| CCOC(=O)Cc1cnc(NC(=O)CSc2nc(C(C)C)cc(=O)[nH]2)s1 | inactive: -9.04% | – |
